# Among all 310,000 compounds or so, about 2,200 (0.71%) showed an effect of 50% or more. The effect is printed as a negative number. This is one part of the list.
# Target: human ether-à-go-go-related gene (hERG) potassium channel (human, UniProt Q12809)
# Experiment: primary screen, population patch clamp on CHO cells stably expressing hERG
# Sequence of human ether-à-go-go-related gene (hERG) potassium channel (Q12809 whole entry, looked up): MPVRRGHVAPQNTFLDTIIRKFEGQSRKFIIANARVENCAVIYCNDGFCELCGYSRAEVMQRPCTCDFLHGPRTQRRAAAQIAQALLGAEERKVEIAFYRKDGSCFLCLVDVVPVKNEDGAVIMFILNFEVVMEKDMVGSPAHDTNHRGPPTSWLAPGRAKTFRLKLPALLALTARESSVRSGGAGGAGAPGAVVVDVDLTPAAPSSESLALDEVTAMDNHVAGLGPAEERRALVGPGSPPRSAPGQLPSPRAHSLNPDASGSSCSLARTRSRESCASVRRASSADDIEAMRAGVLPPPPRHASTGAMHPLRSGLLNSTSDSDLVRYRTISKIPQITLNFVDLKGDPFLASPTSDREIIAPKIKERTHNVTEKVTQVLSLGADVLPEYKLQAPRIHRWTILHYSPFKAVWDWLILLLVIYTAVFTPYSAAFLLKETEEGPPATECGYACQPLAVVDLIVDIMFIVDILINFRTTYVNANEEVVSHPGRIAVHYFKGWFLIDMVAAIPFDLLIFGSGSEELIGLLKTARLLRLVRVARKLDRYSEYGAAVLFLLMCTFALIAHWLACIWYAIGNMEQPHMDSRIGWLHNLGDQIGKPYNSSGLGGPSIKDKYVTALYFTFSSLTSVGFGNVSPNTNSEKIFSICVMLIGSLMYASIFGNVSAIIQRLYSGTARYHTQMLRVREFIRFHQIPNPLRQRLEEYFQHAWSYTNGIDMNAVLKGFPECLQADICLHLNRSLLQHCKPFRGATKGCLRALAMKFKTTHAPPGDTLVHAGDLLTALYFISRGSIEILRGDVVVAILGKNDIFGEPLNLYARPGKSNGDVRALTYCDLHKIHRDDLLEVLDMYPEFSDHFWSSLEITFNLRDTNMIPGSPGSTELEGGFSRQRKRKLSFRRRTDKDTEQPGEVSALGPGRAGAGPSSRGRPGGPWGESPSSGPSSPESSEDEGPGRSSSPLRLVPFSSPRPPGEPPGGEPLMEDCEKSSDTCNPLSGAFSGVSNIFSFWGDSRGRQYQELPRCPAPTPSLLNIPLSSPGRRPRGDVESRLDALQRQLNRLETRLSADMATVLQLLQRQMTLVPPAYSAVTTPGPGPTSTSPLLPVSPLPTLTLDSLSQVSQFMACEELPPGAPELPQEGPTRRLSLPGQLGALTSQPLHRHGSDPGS
row,SMILES,"hERG current change (%, negative = inhibition) at 1uM"
1,O=C(c1ccc2nc(-c3ccco3)c(-c3ccco3)nc2c1)N1CCC2(CC1)OCCO2,-4.65%
2,CCC(C(=O)NC1CC1)n1nc(C)c2c(C)n(-c3ccc(C)cc3)nc2c1=O (stereo not shown),9.43%
3,COc1cccc(CNC(=O)CCCn2nc(C)c3c(C)n(-c4ccccc4)nc3c2=O)c1,6.05%
4,NS(=O)(=O)c1ccc(CCNC(=O)CN2CCN(Cc3cccc(C(F)(F)F)c3)CC2)cc1,16.6%
5,Cc1cc(C)c(NC(=O)COC(=O)Cc2ccsc2)c(C)c1,15%
6,c1ccc(-c2csc(N3CCCCCC3)n2)cc1,4.29%
7,CCCn1c(NCc2ccccn2)nc2ccccc21,2.45%
8,O=C(/C=C/c1ccccn1)c1cc(Br)ccc1O,-6.34%
9,CSCCCNC(=O)c1ccccc1OC1CCN(S(C)(=O)=O)CC1,11.6%
10,COc1ccc(CN=C(C#N)C2=C(O)c3ccccc3C2=O)cc1,9.81%
11,COC(=O)c1cn(NC(=O)c2cccc(OC)c2)c(=O)c2ccccc12,19.7%
12,O=C(Cc1ccc(Cl)cc1)NCCS(=O)c1ccc(Cl)cc1 (stereo not shown),-2.89%
13,Cc1c(Cl)ccc(S(=O)(=O)NCCCn2ccnc2)c1Cl,12.2%
14,COC1CCN(C(=O)CC2C(=O)NCCN2CC(C)(C)C)CC1 (stereo not shown),15.2%
15,COc1ccc(NC(=O)CC(C)(C)C)c([N+](=O)[O-])c1,2.52%
16,CC(C)NC(=O)C(=O)NCCc1ccc(Cl)cc1,12.5%
17,Cn1nc(-c2ccc(C(=O)N3CCN(Cc4ccccc4)CC3)cc2)c2ccccc2c1=O,-6.27%
18,O=C(c1ccc(Cn2c(=S)[nH]c3ccc(N4CCOCC4)cc3c2=O)cc1)N1CCN(c2ccc(F)cc2)CC1,21.7%
19,CC1(C)CC(=O)C(C=Nc2ccccc2C(=O)O)=C(O)C1,-0.0852%
20,O=C(c1cccc([N+](=O)[O-])c1)N1CCN(S(=O)(=O)/C=C/c2ccccc2)CC1,-39.7%
21,CCn1c(SCC(=O)NCc2ccccc2)nnc1-c1cccnc1,16.7%
22,COc1ccc(NC(=O)CN2CCN(c3ccccc3F)CC2)cc1,6.34%
23,COc1ccccc1-c1nnc(SCC(=O)N2CCOCC2)n1-c1ccccc1,4.39%

row,SMILES,"hERG current change (%, negative = inhibition) at 1uM"
1,CCc1ccc(-c2cc(C(=O)NN3CCOCC3)c3ccccc3n2)cc1,6.69%
2,CN(C)C(=O)COC(=O)c1cccc(S(=O)(=O)N2CC3(C)CC2CC(C)(C)C3)c1 (stereo not shown),7.59%
3,CC(C)N(Cc1nccn1C)C(=O)CC1C(=O)NCCN1Cc1ccccc1C(F)(F)F (stereo not shown),7.62%
4,CCn1c(SCc2ccc(F)cc2)nnc1-c1nn(-c2ccccc2)ccc1=O,-8.07%
5,CS(=O)(=O)N(CC(=O)N/N=C/c1ccccc1C(=O)O)c1cccc(Cl)c1Cl,3.23%
6,O=C(Nc1cccc([N+](=O)[O-])c1)N1CCc2ccccc2C1,2.06%
7,Cc1ccc(NC(=O)CN(C)S(=O)(=O)c2cnc[nH]2)cc1C,10.2%
8,O=S(=O)(c1ccccc1)N1CN(Cc2ccc(F)cc2)c2nc3ccccc3nc21,-3.43%
9,CCC(CO)NCc1ccccc1OC(C)C.Cl (stereo not shown),11.2%
10,CC(=O)N1Cc2cc([N+](=O)[O-])ccc2Oc2ccccc21,0.114%
11,CC(C)(CO)NCC(O)Cn1cc(C=O)c2ccccc21 (stereo not shown),16.8%
12,Fc1ccc(F)c(CNc2ncnc3cc(Cl)ccc23)c1,13.8%
13,Cc1cccc(NC(=S)NCc2ccco2)n1,6.81%
14,C[C@@H](CN1C(=O)C(=O)NC[C@@H]1C)NC(=O)CC12CC3CC(CC(C3)C1)C2,13.9%
15,Cc1onc(-c2ccccc2)c1-c1n[nH]c(=S)n1-c1ccc(C(=O)O)cc1,16.5%
16,O=C(Nc1cccnc1)c1ccc(COc2ccccc2Br)o1,9.66%
17,S=C(Nc1ccc(Cl)cc1)N1CCN(C2CCCCC2)CC1,-1.99%
18,O=C(Nc1ccccc1)/C(=C\c1ccc2c(c1)OCO2)NC(=O)c1ccco1,9.59%
19,Cc1ccc(S(=O)(=O)CCC(=O)OCC(=O)NCC(=O)Nc2c(C)cc(C)cc2C)cc1,5.77%
20,Cc1ccc(S(=O)(=O)O/N=C2\CCCc3ccccc32)cc1,10.3%
21,O=C(NC(=S)N1CCN(c2ccc([N+](=O)[O-])cc2)CC1)c1ccc(F)cc1,-16.6%
22,Cc1ccsc1C(=O)NNC(=O)C1CC=CCC1C(=O)O (stereo not shown),-0.401%
23,COc1cc2[nH]c(=S)n(NC(=O)CC(C)C)c(=O)c2cc1OC,7.27%

row,SMILES,"hERG current change (%, negative = inhibition) at 1uM"
1,Brc1ccc(-c2nn[nH]n2)cc1,13.1%
2,CCOC(=O)N1CCC(NC(=O)c2ccc3c(c2)N(C)C(=O)/C(=C/c2cccc(OC)c2)S3)CC1,9.68%
3,Cc1c(N=N/C(C(=O)Nc2ccccc2)=C(/O)c2ccccc2)c(=O)n(-c2ccccc2)n1C,9.48%
4,C=CCNC(=S)NCc1ccccc1,6.64%
5,CCOC(=O)NN1C(=O)c2ccccc2NC1C (stereo not shown),-5.18%
6,N=c1c2c(-c3ccccc3)c(-c3ccccc3)n(Cc3ccco3)c2ncn1Cc1ccco1,-26.8%
7,O=C1c2ccccc2-c2nnc(-c3ccc(F)cc3)cc21,4.98%
8,O=c1[nH]cnc2c1c(-c1ccccc1)cn2-c1cccc(Cl)c1,7.89%
9,Cn1c(-c2cccs2)[n+](C)c2ccccc21.[Cl-],6.22%
10,CCN1CCN(C(CNS(=O)(=O)c2cccs2)c2cccnc2)CC1 (stereo not shown),-26.8%
11,COc1ccc2c(c1)C(C)=CC(C)(C)N2C(=O)CNCc1ccc2c(c1)OCO2.O=C(O)C(=O)O,-6.29%
12,CC(C)(C)C1CCC(OC(=O)CCC(=O)Nc2ccccc2)CC1 (stereo not shown),11%
13,CCn1c(CN2CCN(c3ccc(OC)cc3)CC2)nc2cc(S(=O)(=O)N(C)C)ccc21,15.6%
14,COc1ccccc1C1CC(c2ccc(Cl)cc2Cl)Nc2nc(N)nn21 (stereo not shown),-7.45%
15,C=CCNc1nc(C(=O)OCC(=O)Nc2c(Cl)cccc2C(F)(F)F)cs1,18.2%
16,O=Cc1ccc(Oc2cnccn2)cc1,15.7%
17,CCn1cc(Br)c(C(=O)N(C)Cc2ccccc2)n1,11.4%
18,COC(=O)c1scc2c(Oc3ccccc3)cc(C(F)(F)F)nc12,20%
19,Cc1ccc(C2NCCS2)cc1 (stereo not shown),12.2%
20,O=C1C/C(=C/NCc2ccccc2)C(=O)N1,16.4%
21,CC1(C)C(=O)OC(c2cc(Br)ccc2O)C(C)(C)C1=O (stereo not shown),7.33%
22,CCCn1nnnc1NC(=O)COc1ccc(CC)cc1,6.24%
23,CC(C)(Cc1ccc(O)cc1)NC(=O)c1ccccc1,5.46%

row,SMILES,"hERG current change (%, negative = inhibition) at 1uM"
1,Cc1ncc(CN2CCCC(C(=O)Nc3ccc(-n4ccnc4C)cc3)C2)cn1 (stereo not shown),13%
2,C=CCOc1ccc(/C=C/C(=O)OCC(=O)NCc2cccc(OC)c2)cc1,6.65%
3,Cc1ccc(-n2nnnc2C(Cl)(Cl)c2nnnn2-c2ccc(C)cc2)cc1,4.37%
4,CCC(C)N(CC(=O)NCc1ccc(OC)cc1)C(=O)c1csnn1 (stereo not shown),-5.54%
5,CCOC(=O)Cn1c(=N)n(CCOc2ccc3ccccc3c2)c2ccccc21.Cl,-20.9%
6,CS(=O)(=O)N(CC(=O)N1CCc2ccccc2C1)c1cccc(Br)c1,1.25%
7,Cc1c(NC(=O)c2cc(=O)[nH]c3ccccc23)c(=O)n(-c2ccccc2)n1C,14.6%
8,COc1cc(CCC(C)=O)ccc1OC(=O)c1c(F)cccc1Cl,3.27%
9,Cc1ccc(C2=NCC(=O)Nc3ccc(Br)cc32)cc1,9.52%
10,Cc1cc(OCC(=O)N2CCCC2)cc(C)c1Cl,4.03%
11,O=[N+]([O-])c1c(Nc2cccc(O)c2)cc(Cl)c2nonc12,7.11%
12,O=C(COC(=O)c1ccc(O)cc1)Nc1ccc(OC(F)F)cc1,-2.14%
13,CCc1ccc(Nc2cc(C)nc3nc(C)nn23)cc1,-9.83%
14,COC(=O)c1ccc(OCC(=O)c2ccc(C)c(C)c2)cc1,5.68%
15,CCC/C(=N\NC(=O)c1ccccc1C)c1ccccc1,12.7%
16,COCCNC(=O)C(Cc1c[nH]c2ccccc12)NC(=O)OCc1ccccc1 (stereo not shown),10.8%
17,CCOC(=O)c1ccc(CNCc2ccccc2)cc1,4.25%
18,CCOC(=O)N1CCC(N(C(=O)Nc2ccc(CC)cc2)C(C)CC)CC1 (stereo not shown),-1.23%
19,CCN(C(=O)CSc1nnc(-c2ccncc2)o1)c1ccccc1,13.2%
20,COc1ccc(-c2cn[nH]c2-c2ccc(O)cc2O)cc1OC,10.8%
21,Cc1ccc(N2C(=O)C(Cl)=C(N3CCCCCC3)C2=O)cc1,17%
22,O=C(Nc1ccc(Cl)cc1)N1CCC(c2nc(-c3ccc(F)cc3)no2)CC1,9.17%

# Reference: PMC4336329 (PLoS ONE, 2015)
